Assay results taken from patent publication US20100233079A1 (AbbVie / Abbott, published 2010).

T1: VEGF (VEGF 1-165 aa) (UniProt P15692 27-191)
T1 construct: range 1-165; '1-165 aa' is the vendor's designation; it probably counts on the mature VEGF165 isoform, not on the precursor
T1 sequence (looked up): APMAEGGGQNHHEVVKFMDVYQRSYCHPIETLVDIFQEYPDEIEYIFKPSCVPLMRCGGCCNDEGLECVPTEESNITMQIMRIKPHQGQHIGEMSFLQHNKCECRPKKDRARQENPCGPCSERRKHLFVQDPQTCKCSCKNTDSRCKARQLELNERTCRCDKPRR

B1: D2E7-13C5.5L3F DVD-Ig LC12HC6 (bispecific antibody)
heavy: not shown
light: [about 100 residues omitted here]TVAAPSVFIFPPDIQMTQSPSSLSASVGDRVTISCRASQDIRNYLNWYQQKPGKAPKLLIFYTSKLHSGVPSRFSGSGSGTDYTLTISSLQPEDIATYYCQQGLTPPLTFGGGTKVEIKRTVAAPSVFIFPPSDEQLKSGTASVVCLLNNFYPREAKVQWKVDNALQSGNSQESVTEQDSKDSTYSLSSTLTLSKADYEKHKVYACEVTHQGLSSPVTKSFNRGEC
notes: TNF (outer) / IL-13 (inner) DVD-Ig of the D2E7-13C5.5L3F series
B2: DVD697 (bispecific antibody, human IgG1, kappa)
heavy: EVQLVESGGGLVQPGGSLRLSCAASGFSFSSEPISWVRQAPGKGLEWVSSITGKNGYTYYADSVKGRFTISADTSKNTAYLQMNSLRAEDTAVYYCARWGKKVYGMDVWGQGTLVTVSSGGGGGGGPEVQLVESGGGLVQPGGSLRLSCAASGYTFTNYGMNWVRQAPGKGLEWVGWINTYTGEPTYAADFKRRFTFSLDTSKSTAYLQMNSLRAEDTAVYYCAKYPHYYGSSHWYFDVWGQGTLVTVSS[human IgG1 constant region omitted here]
light: DIQMTQSPSSLSASVGDRVTITCRASQSISSYLAWYQQKPGKAPKLLIYGASSRASGVPSRFSGSGSGTDFTLTISSLQPEDFATYYCQQYMSVPITFGQGTKVEIKRGGGGGGPDIQMTQSPSSLSASVGDRVTITCSASQDISNYLNWYQQKPGKAPKVLIYFTSSLHSGVPSRFSGSGSGTDFTLTISSLQPEDFATYYCQQYSTVPWTFGQGTKVEIKRTVAAPSVFIFPPSDEQLKSGTASVVCLLNNFYPREAKVQWKVDNALQSGNSQESVTEQDSKDSTYSLSSTLTLSKADYEKHKVYACEVTHQGLSSPVTKSFNRGEC
notes: NRP1 (outer) / VEGF (inner) DVD-Ig; also called DVD697 DVD-Ig
B3: DVD698 (bispecific antibody, human IgG1, kappa)
heavy: EVQLVESGGGLVQPGGSLRLSCAASGFSFSSEPISWVRQAPGKGLEWVSSITGKNGYTYYADSVKGRFTISADTSKNTAYLQMNSLRAEDTAVYYCARWGKKVYGMDVWGQGTLVTVSSGGGGGGGGPEVQLVESGGGLVQPGGSLRLSCAASGYTFTNYGMNWVRQAPGKGLEWVGWINTYTGEPTYAADFKRRFTFSLDTSKSTAYLQMNSLRAEDTAVYYCAKYPHYYGSSHWYFDVWGQGTLVTVSS[human IgG1 constant region omitted here]
light: DIQMTQSPSSLSASVGDRVTITCRASQSISSYLAWYQQKPGKAPKLLIYGASSRASGVPSRFSGSGSGTDFTLTISSLQPEDFATYYCQQYMSVPITFGQGTKVEIKRGGGGGGGPDIQMTQSPSSLSASVGDRVTITCSASQDISNYLNWYQQKPGKAPKVLIYFTSSLHSGVPSRFSGSGSGTDFTLTISSLQPEDFATYYCQQYSTVPWTFGQGTKVEIKRTVAAPSVFIFPPSDEQLKSGTASVVCLLNNFYPREAKVQWKVDNALQSGNSQESVTEQDSKDSTYSLSSTLTLSKADYEKHKVYACEVTHQGLSSPVTKSFNRGEC
notes: NRP1 (outer) / VEGF (inner) DVD-Ig; also called DVD698 DVD-Ig
B4: DVD695 (bispecific antibody, human IgG1, kappa)
heavy: EVQLVESGGGLVQPGGSLRLSCAASGFSFSSEPISWVRQAPGKGLEWVSSITGKNGYTYYADSVKGRFTISADTSKNTAYLQMNSLRAEDTAVYYCARWGKKVYGMDVWGQGTLVTVSSASTKGPEVQLVESGGGLVQPGGSLRLSCAASGYTFTNYGMNWVRQAPGKGLEWVGWINTYTGEPTYAADFKRRFTFSLDTSKSTAYLQMNSLRAEDTAVYYCAKYPHYYGSSHWYFDVWGQGTLVTVSS[human IgG1 constant region omitted here]
light: DIQMTQSPSSLSASVGDRVTITCRASQSISSYLAWYQQKPGKAPKLLIYGASSRASGVPSRFSGSGSGTDFTLTISSLQPEDFATYYCQQYMSVPITFGQGTKVEIKRTVDDDDKAAPDIQMTQSPSSLSASVGDRVTITCSASQDISNYLNWYQQKPGKAPKVLIYFTSSLHSGVPSRFSGSGSGTDFTLTISSLQPEDFATYYCQQYSTVPWTFGQGTKVEIKRTVAAPSVFIFPPSDEQLKSGTASVVCLLNNFYPREAKVQWKVDNALQSGNSQESVTEQDSKDSTYSLSSTLTLSKADYEKHKVYACEVTHQGLSSPVTKSFNRGEC
notes: NRP1 (outer) / VEGF (inner) DVD-Ig; also called DVD695 DVD-Ig
B5: DVD696 (bispecific antibody, human IgG1, kappa)
heavy: B4 heavy
light: DIQMTQSPSSLSASVGDRVTITCRASQSISSYLAWYQQKPGKAPKLLIYGASSRASGVPSRFSGSGSGTDFTLTISSLQPEDFATYYCQQYMSVPITFGQGTKVEIKRLVPRGSAAPDIQMTQSPSSLSASVGDRVTITCSASQDISNYLNWYQQKPGKAPKVLIYFTSSLHSGVPSRFSGSGSGTDFTLTISSLQPEDFATYYCQQYSTVPWTFGQGTKVEIKRTVAAPSVFIFPPSDEQLKSGTASVVCLLNNFYPREAKVQWKVDNALQSGNSQESVTEQDSKDSTYSLSSTLTLSKADYEKHKVYACEVTHQGLSSPVTKSFNRGEC
notes: NRP1 (outer) / VEGF (inner) DVD-Ig; also called DVD696 DVD-Ig

What was measured:
[1] = target: T2, rhTNFα (human recombinant TNFα) (human, UniProt P01375 in part); experiment: cell-based or functional assay
[2] = target: T3, rhIL-13 (recombinant human IL-13) (human, UniProt P35225 in part, limits assumed); experiment: cell-based or functional assay
[3] = target: T2, rhTNFα (human recombinant TNFα); experiment: SPR (Biacore 3000), DVD-Ig captured by anti-human IgG Fc, antigen in solution
[4] = target: T3, rhIL-13 (recombinant human IL-13); experiment: as above
[5] = target: T4, NRP1 (Neuropilin-1 Npn-1-His tag) (UniProt O14786-2 22-644, limits assumed); experiment: direct bind ELISA, antigen on plate
T4 construct: Bought antigen with a His tag
Experimental: (§1) Enzyme Linked Immunosorbent Assays to screen for antibodies that bind a desired target antigen were performed as follows. […] Plates were washed four times with PBS containing 0.02% Tween 20. […] Plates were washed four times after blocking with PBS containing 0.02% Tween 20.
(§2) One hundred microliters of 10 ng/mL goat anti-human IgG-FC specific HRP conjugated antibody (Southern Biotech #2040-05, Birmingham, Ala.) was added to each well of the desired target antigen plate or anti-polyHistidine antibody/Histidine tagged desired target antigen plate. Alternatively, one hundred microliters of 10 ng/mL goat anti-human IgG-kappa light chain specific HRP conjugated antibody (Southern Biotech #2060-05 Birmingham, Ala.) was added to each well of the desired target antigen/FC fusion plate and incubated for 1 hour at room temperature. Plates were washed 4 times with PBS containing 0.02% Tween 20.

VEGF (VEGF 1-165 aa) = target: T1, VEGF (VEGF 1-165 aa); experiment: direct bind ELISA, antigen on plate
Experimental: as §1, §2

T3 sequence (P35225 35-146 limits assumed): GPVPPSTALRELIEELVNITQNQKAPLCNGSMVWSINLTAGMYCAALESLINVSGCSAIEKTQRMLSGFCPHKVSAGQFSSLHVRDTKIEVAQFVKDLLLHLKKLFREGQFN
T2 sequence (P01375 77-233 limits assumed): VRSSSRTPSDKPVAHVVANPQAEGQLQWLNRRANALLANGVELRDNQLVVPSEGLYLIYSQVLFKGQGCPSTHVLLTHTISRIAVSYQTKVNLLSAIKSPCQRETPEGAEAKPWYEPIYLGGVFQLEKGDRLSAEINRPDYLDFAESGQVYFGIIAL

Binder	Anti-TNF activity by L929 bioassay (IC50, nM) [1] [nM]	Anti-IL-13 activity by A549 bioassay (IC50, nM) [2] [nM]	Kd [3] [pM]	Kd [4] [pM]	EC50 [5] [pM]	EC50 (VEGF (VEGF 1-165 aa)) [pM]
B1	0.028	0.52	8	402		
B2					270	420
B3					300	350
B4					320	370
B5					280	330
